5 compounds from the supplement of paper PMC4604168 (melanoma cell lines) can be followed below.

The list shows a part of the results. Many values rest on one well or one pass, so single values are uncertain.
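Also: cell number obtained by counting DAPI-stained nuclei in high-throughput microscope images with image analysis software, screen run in 1,536-well plates.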

For this assay, the system named is WM1745. Put plainly: cell count relative to DMSO control; melanoma cells; higher = more viable cells. The note with it: library dose: low library concentration; 72 h.
For the compound `Nc1nc(F)nc2c1ncn2[C@@H]1O[C@H](CO)[C@@H](O)[C@@H]1O` [fludarabine] + CO[C@@H]1[C@H](N(C)C(=O)c2ccccc2)C[C@H]2O[C@]1(C)n1c3ccccc3c3c4c(c5c6ccccc6n2c5c31)C(=O)NC4 [Midostaurin] (first compound 0.2 µM, partner dose 0.08 µM), the cell count worked out at 79.7%. `Nc1ncn([C@H]2C[C@H](O)[C@@H](CO)O2)c(=O)n1` [decitabine] + O=C1NC(=O)/C(=C/c2ccc(-c3ccc(F)cc3O)o2)S1 [AS252424] (first compound 0.1 µM, partner dose 1 µM) came in with a cell count of 86.9%.

The compound `Nc1ncn([C@H]2C[C@H](O)[C@@H](CO)O2)c(=O)n1` [decitabine] + CC(C)(C)c1cnc(CSc2cnc(NC(=O)C3CCNCC3)s2)o1 [SNS-032] (first compound 0.1 µM, partner dose 0.01 µM) gave a cell count of 104%.

As for `Nc1ccn([C@@H]2O[C@H](CO)[C@@H](O)C2(F)F)c(=O)n1` [gemcitabine] + COc1ccc2c(c1)CCC1C2CCC2(C)C(NCCCCCCN3C(=O)C=CC3=O)CCC12 [U73122] (first compound 0.0004 µM, partner dose 0.4 µM), the cell count is 70.4%. In turn, `Nc1ncn([C@H]2C[C@H](O)[C@@H](CO)O2)c(=O)n1` [decitabine] + COc1cc2c(Oc3ccc4[nH]c(C)cc4c3F)ncnc2cc1OCCCN1CCCC1 [cediranib] (first compound 0.1 µM, partner dose 0.4 µM) yielded a cell count of 80.7%.
